Assay results from PubChem BioAssay AID686979 (National Center for Advancing Translational Sciences (NCATS), 2013).
Values joined by “and” are separate entries in the source; they are usually repeats but may differ in a detail not shown here. Equal entries are not always repeated. In all, about 420,000 compounds went through this assay and about 50,000 (12%) were called active. This list was built around the results that the source calls inconclusive (neither active nor inactive); the mix of calls is not that of the screen. The call rests on the fitted dose curve; in most records, active means well fitted inhibition curve with a large enough effect; inconclusive means small, poorly fitted or top-dose-only effect; inactive means flat fitted curve, though single readings scatter. No potency is given beside an inconclusive call; the fits are too rough.

Assay: qHTS for Inhibitors of human tyrosyl-DNA phosphodiesterase 1 (TDP1): qHTS in cells in presence of CPT; further: nearly all actives have a fitted effect of over 55% in size
Conditions: chicken DT40 Tdp1-/-;hTDP1 cells + 20 nM CPT, ATP luminescence, 48 h; activity change, negative = growth inhibition: at 46.2 µM (top of the series) unless noted
How it was run: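 Chicken DT40 Tdp1-/- cells complemented with human TDP1, 400 cells/well, exposed to compounds plus 20 nM camptothecin for at least 48 h at 37 C; viability read as ATP content by CellTiter-Glo luminescence.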
On the % scale 0 is the no-effect control and ±100 the full control effect; potency means the concentration at half of the fitted maximal effect; tags describe the fitted curve by direction and shape.

| SMILES | Potency | activity change, negative = growth inhibition |
| --- | --- | --- |
| CN(C)C(CNc1ccc(C(F)(F)F)cc1[N+](=O)[O-])c1ccccc1 (configuration not stated) | inconclusive [inhibitor, single point] | – |
| Cc1ccccc1Nc1nc(N)nc(COC(=O)c2ccc([N+](=O)[O-])o2)n1 | inconclusive [inhibitor, single point] | – |
| COc1ccc(CNC(=O)c2ccc3nc(C)c(N(C)Cc4ccc(NC(C)=O)cc4)n3c2)cc1 | active: 13 µM | – |
| OC(COc1ccccc1)CN1CCOCC1 (configuration not stated) | inactive | – |
| O=C(CSc1nc(Nc2ccccc2)nc(N2CCOCC2)n1)N1CCc2ccccc21 | inconclusive [inhibitor, partial curve, poor fit] | – |
| Cc1ccc2cc(CN(CCc3ccccc3)C(=S)NCCCN(C)C)c(=O)[nH]c2c1 | inconclusive [inhibitor, single point] | – |
| Cc1ccccc1NC(=S)N(Cc1ccccc1)Cc1cccs1 | inactive | – |
| COc1ccc(C2CC(=O)c3cc(-c4nc(-c5cccc([N+](=O)[O-])c5)cs4)c(=O)n(-c4ccccc4C)c3C2)cc1 (configuration not stated) | inactive | – |
| CC(=O)N(CCOc1ccccc1)CCOc1ccccc1 | inactive | – |
| Cc1c(NC(=O)CNCc2ccc3c(c2)OCO3)c(=O)n(-c2ccccc2)n1C | inactive | – |
| COc1ccc(CNC(=O)c2ccc(CS(=O)Cc3ccc(Cl)cc3)o2)cc1 (configuration not stated) | inactive | – |
| O=C(NCCc1c[nH]c2ccccc12)c1ccco1 | inactive | – |
| CCOC(=O)N1CCN(C(=O)c2ccc3nc(SCc4ccc(F)cc4)n(C)c3c2)CC1 | active: 23.1 µM | – |
| Cn1ccc2c(-c3cccc4ccccc34)cc3c(c21)C1CCC3O1 (configuration not stated) | inconclusive [inhibitor, single point] | – |
| CCCCCn1c(=O)[nH]c2cc(C(=O)NCCN3CCOCC3)ccc2c1=O | inactive | – |
| O=C(c1ccc(-c2ccccc2)cc1)N1CCN(c2ccc3c(c2)C2CC3CCN2C(=O)OCc2ccccc2)CC1 (configuration not stated) | inconclusive [inhibitor, single point] | – |
| CC(=NNc1ccc([N+](=O)[O-])cn1)c1ccc(N)cc1 | inconclusive [inhibitor, single point] | – |
| O=C(Cc1ccc(F)cc1)Nc1cccc(-c2cn3c(n2)SCC3)c1 | – | inconclusive: -32.2% [inhibitor] |
| C=CCn1c(SCc2ccc(C#N)cc2)nnc1-c1ccc(C)cc1 | inconclusive [inhibitor, single point] | – |
| COC(=O)c1c(NC(=O)c2ccco2)sc2c1CCN(C(C)=O)C2 | inconclusive [inhibitor, single point] | – |
| COc1ccc(S(=O)(=O)n2cnc3ccccc32)c(C)c1 | active: 18.4 µM | – |
| COc1ccccc1-c1ccc2ncnc(N3CCNCC3)c2c1 | inconclusive [inhibitor, partial curve] | – |
| O=C(Nc1ccccc1Cl)c1ccc(COc2ccc3c(c2)CCC3)cc1 | inactive | – |
| CCN(C(=O)c1ccc(NC(=O)Cc2ccccc2)cc1)c1ccccc1 | inactive | – |

| SMILES | Potency | activity change, negative = growth inhibition |
| --- | --- | --- |
| COCc1cc(C)nc(SCC(=O)Nc2cc(C(F)(F)F)ccc2N2CCOCC2)c1C#N | inconclusive [inhibitor, single point] | – |
| COc1cccc(/C=C/C(=O)OCC(=O)NCCC2=CCCCC2)c1 | inconclusive [inhibitor, single point] | – |
| C=CC[n+]1c(-c2ccc(OC)cc2)csc1NNC(=O)Nc1ccccc1 | active: 7.31 µM | – |
| C=C1CCN(c2ccc(C(=O)NCc3ccccc3)cc2[N+](=O)[O-])CC1 | inactive | – |
| CCC1SC(C)C/C(=N/NC(N)=O)C1C (configuration not stated) | inactive | – |
| COc1ccccc1C(=O)NCCc1csc(-c2ccc(C(F)(F)F)cc2)n1 | inconclusive [inhibitor, single point] | – |
| CCCCNc1ccc(/C=C2\C=Cc3ccccc32)cc1 | inconclusive [inhibitor, single point] | – |
| Cc1nn(Cc2c(F)c(F)c(F)c(F)c2F)c(C)c1NC(=O)c1ccc(COc2cc(Cl)ccc2Cl)cc1 | inconclusive [inhibitor, partial curve, poor fit] | – |
| O=[N+]([O-])c1ccc(NN=Cc2ccc(O)cc2O)nc1 | active: 3.26 µM | – |
| O=C(NCCS(=O)(=O)N1CCC2(CC1)OCCO2)c1ccc(F)cc1 | inactive | – |
| Cc1ccc(Cn2c(CN(C)Cc3ccccc3)nc3c2c(=O)n(C)c(=O)n3C)cc1 | inconclusive [inhibitor, single point] | – |
| COc1ccc(F)c(CN2CCOc3ccc(CN4CCCCC4CO)cc3C2)c1 (configuration not stated) | – | inactive: -0.991% [at 9.04 µM] |
| COc1ccc2[nH]cc(C(=O)CN3CCCC(C)(C)C3)c2c1 | inconclusive [inhibitor, partial curve] | – |
| COc1cccc(Cn2c(=O)c(C)nc3cnc(Oc4ccccc4)nc32)c1 | inconclusive [inhibitor, single point] | – |
| S=c1[nH]nc(-c2ccccc2)n1/N=C/c1cccc(Cl)c1 | inconclusive [inhibitor, single point] | – |
| CC(C)c1nc2cc(C(=O)N3CCNC(=O)C3c3cccc(F)c3)ccc2o1 (configuration not stated) | inactive | – |
| Cc1c(C(=O)NCc2ccc3c(c2)OCCO3)sc(=O)n1Cc1ccccc1C(F)(F)F | inconclusive [inhibitor, single point] | – |
| Cc1ccccc1-n1nnnc1SCC(=O)c1c(N)n(C2CC2)c(=O)[nH]c1=O | inconclusive [inhibitor, single point] | – |
| CC(=O)N1CCc2cc(CNC(=O)Nc3ccccc3C(F)(F)F)ccc21 | inactive | – |
| CC(=O)O[C@H]1C2OC(=O)C(C)=C2[C@@H]2OC(=O)[C@]3(CCC4OC41C)OC23 (some centres not stated) | active: 14.6 µM | – |
| CCCCNC(=O)C[C@@H]1C[C@@]2(C(=O)OCC)CCCC=C2N(Cc2ccccc2)C1=O | inconclusive [inhibitor, single point] | – |
| Cc1ccc2nc(CSc3nnc(Nc4ccccc4F)s3)cc(=O)n2c1 | inconclusive [inhibitor, single point] | – |
| O=C(NCc1ccccc1Cl)C1CCC(CNc2nc(=S)[nH]c3ccccc23)CC1 (configuration not stated) | inconclusive [inhibitor, partial curve] | – |
| CN(Cc1ccccc1)C(=O)c1[nH]cnc1C(=O)N[C@@H](Cc1ccccc1)C(=O)OCc1ccccc1 | inconclusive [inhibitor, single point] | – |

| SMILES | Potency | activity change, negative = growth inhibition |
| --- | --- | --- |
| C/C(CC(=O)Nc1ccc(OCc2ccccc2)cc1)=N\NC(=O)C(=O)Nc1cccc(C)c1 | inconclusive [inhibitor, single point] | – |
| COc1ccc(-c2cn[nH]c2-c2ccc(OCc3ccccc3F)cc2O)cc1OC | active: 29.1 µM | – |
| O=C(COC(=O)c1cnc(Cl)c(Cl)c1)NC1CC1 | inactive | – |
| O=C(C(=O)N1CCCc2ccccc21)c1c[nH]c2ccccc12 | inactive | – |
| O=S(=O)(NCc1ccc(Cl)cc1)NCc1ccccc1F | inactive | – |
| COCC1CCN(C(=O)c2ccc3oc(Cc4ccc(Cl)cc4)nc3c2)C1 (configuration not stated) | inconclusive [inhibitor, partial curve, poor fit] | – |
| CCCCNC(=O)c1nn(-c2ccccc2OC)c(=O)c2ccccc12 | – | inconclusive: -33% [inhibitor] |
| Clc1ccc(OCCn2c(-c3ccco3)nc3ccccc32)cc1 | inconclusive [inhibitor, single point] | – |
| Cc1c(C(=O)NC2CCCc3ccccc32)oc2ccc(S(=O)(=O)N3CCCC3)cc12 (configuration not stated) | active: 8.2 µM | – |
| CC(C)C(=O)NC(=S)N1CCc2ccccc21 | inactive | – |
| COc1ccc2c(CNC3CCC(C)CC3)c(C(=O)O)n(Cc3ccccc3)c2c1 (configuration not stated) | inconclusive [inhibitor, single point] | – |
| N#Cc1c(NC(=O)c2ccccc2)sc2c1CCC2 | active: 18.4 µM | – |
| Cc1cccc(Cn2nnc3c2C(=O)c2ccccc2C3=O)c1 | active: 9.2 µM | – |
| CC(=O)c1cc2c(=O)c3cc(C)ccc3oc2nc1C | inconclusive [inhibitor, partial curve] | – |
| COc1ccc(CCNC(=O)Cn2cnc3c(cnn3-c3ccccc3Cl)c2=O)cc1OC | – | inconclusive: -30.1% [inhibitor] |
| Cc1[nH]c2ccccc2c1/C=N/NC(=O)CCC(=O)NCc1ccccc1 | inconclusive [inhibitor, single point] | – |
| CCc1nc2ccc(C(=O)Nc3cccc(OCC(=O)N(C)C)c3)cn2c1N(CCC(C)C)CCN(C)C | inactive | – |
| Cn1c(=O)c2[nH]c(-c3ccccc3)c(O)c2n(C)c1=O | inconclusive [inhibitor, single point] | – |
| Cc1ccc2c(CN3CCN(S(=O)(=O)/C=C/c4ccccc4)CC3)cc(=O)oc2c1 | inactive | – |
| CN1CCN(C(=O)c2ccc(-c3ccc(Br)cc3)o2)CC1 | inactive | – |
| Cc1cccc(Cn2nnc3c(=O)[nH]c(C4CCCN(C(=O)c5ccc(C(C)(C)C)cc5)C4)nc32)c1 (configuration not stated) | inconclusive [inhibitor, single point] | – |
| COc1ccc(N(CC(=O)N/N=C/c2ccc(F)cc2)S(=O)(=O)c2ccccc2)cc1 | inconclusive [inhibitor, single point] | – |
| CCCN1CCCc2cc(CN(CCCN3CCOCC3)C(=O)Nc3ccc(OCC)cc3)ccc21 | active: 18.4 µM and active: 25.9 µM | – |
| CCN1CCCC1CN(Cc1cc2cc(C)cc(C)c2[nH]c1=O)C(=O)Nc1ccccc1OC (configuration not stated) | active: 13 µM | – |
